Where “and” joins values, the source holds several entries; their conditions need not be identical. Equal entries are not always repeated. Out of some 420,000 compounds screened, about 50,000 (12%) were called active. The shares of active, inactive and inconclusive entries below differ from those in the screen. Calls follow the shape of the dose curve; as a rule, active = well fitted inhibition curve with a large enough effect; inconclusive = small, poorly fitted or top-dose-only effect; inactive = flat fitted curve, though single readings scatter. Potencies beside an inconclusive call are fits to weak or partial responses and may not hold up. The source holds several records for some structures; these can differ, active in one and inactive in another.
Assay: qHTS for Inhibitors of human tyrosyl-DNA phosphodiesterase 1 (TDP1): qHTS in cells in presence of CPT; also: nearly all actives have a fitted effect of over 55% in size
Details: chicken DT40 Tdp1-/-;hTDP1 cells + 20 nM CPT, ATP luminescence, 48 h; activity change, negative = growth inhibition: at 46.2 µM (top of the series)
Summary of the method: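 Chicken DT40 Tdp1-/- cells stably complemented with human TDP1 were seeded at 400 cells/well in medium containing 20 nM camptothecin, exposed to pin-transferred compounds, and grown at 37 °C for at least 48 hr. Viability was read as ATP luminescence.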
% is scaled to controls: 0 for no effect and ±100 for the full control effect; potency is read from the fitted curve at half-maximal effect; tags tell the direction and shape of the fitted curve.

Row | Structure (SMILES) | Potency | activity change, negative = growth inhibition
1 | O=C(CSc1nc2c(c(=O)[nH]1)CN(Cc1ccc3c(c1)OCO3)CC2)Nc1cc(F)ccc1F | inconclusive: 16.4 µM [inhibitor, single point] | 
2 | O=C(CSc1ncn[nH]1)N(C1CCCCC1)C1CCCCC1 | inconclusive: 25.9 µM [inhibitor, single point] | 
3 | O=C(CC(Cc1ccccc1)C(=O)O)Nc1cccc(C(F)(F)F)c1 (configuration not stated) |  | inactive: 2.49%
4 | COc1ccc(-c2nnc(SCC(=O)Nc3cccc(C)c3)s2)cc1 |  | inactive: 0.464%
5 | NC(=O)c1ccc(NC(=O)COC(=O)/C=C/c2ccc3c(c2)OCO3)cc1 |  | inactive: -16%
6 | COc1ccccc1-c1cc(C(=O)Nc2c(C)nn(Cc3ccc(Cl)cc3)c2C)no1 | active: 20.6 µM | 
7 | CCOC(=O)c1c(NC(=O)CSc2cn(CCNC(=O)c3ccc(OC)cc3)c3ccccc23)sc2c1CCC2 | inconclusive: 23.1 µM [inhibitor, single point] | 
8 | C/C(=N\NC(=O)c1cccc(S(=O)(=O)N2CCOCC2)c1)c1cc2ccccc2o1 | inconclusive: 16.4 µM [inhibitor, single point] | 
9 | CCCCOC(=O)c1ccc(NC(=O)C2(c3cccs3)CCOCC2)cc1 | inconclusive: 23.1 µM [inhibitor, partial curve, poor fit] | 
10 | CC(C)(C)C(=O)Nc1scc(-c2ccc(-c3ccccc3)cc2)c1C(=O)O | inconclusive: 20.6 µM [inhibitor, single point] | 
11 | O=C(c1cn(-c2ccccc2)nc1-c1cccnc1)N1CCN(S(=O)(=O)c2ccc(Cl)cc2)CC1 | inconclusive: 29.1 µM [inhibitor, single point] | 
12 | CC1(NC(=O)CCS(=O)(=O)c2ccc(Cl)cc2)CCS(=O)(=O)C1 (configuration not stated) |  | inactive: 7.44%
13 | Cc1cc(Cl)ccc1Oc1ncc(-c2ccc(Cl)cc2)cn1 | inconclusive: 29.1 µM [inhibitor, single point] | 
14 | COc1ccc(-c2cn3nc(N4CCCC(C(=O)Nc5ccccc5F)C4)sc3n2)cc1 (configuration not stated) | active: 20.6 µM | 
15 | COc1ccc(NC(=O)CSc2nccn2C2CCCC2)cc1OC | inconclusive: 25.9 µM [inhibitor, single point] | 
16 | Cc1nn(CC(=O)Nc2ccc(C(C)C)cc2)c(=O)c2c(C)n(-c3ccc(Cl)cc3)nc12 | inconclusive: 29.1 µM [inhibitor, single point] | 
17 | COc1ccc(NC(=O)C(C)SCc2ccccc2)cc1 (configuration not stated) | inconclusive: 29.1 µM [inhibitor, single point] | 
18 | CCOc1ccccc1N(C)C(=O)c1sc2nc3n(c(=O)c2c1C)CCCC3 | inconclusive: 25.9 µM [inhibitor, single point] | 
19 | Cc1ccc(C(=O)COC(=O)c2cccc([N+](=O)[O-])c2)s1 |  | inactive: 4.93%
20 | CCCn1c(=O)c(C(=O)N/N=C/c2ccccc2F)c(O)c2ccccc21 |  | inactive: 17.1%
21 | COc1ccc(NC(=O)C(c2ccc(OC)cc2)N(C)C(=O)Cc2cccs2)cc1 (configuration not stated) | inactive and active: 23.1 µM | 
22 | Cc1nc2ccccc2c2oc(C(=O)N3CCc4ccccc4C3)cc12 | active: 23.1 µM | 
23 | O=C(Nc1ccccc1OC(F)F)c1oc2ccccc2c1COc1ccccc1 |  | inactive: 2.17%
24 | O=C(NCCn1c(C(F)(F)F)nc2cc(C(F)(F)F)ccc21)[C@H]1CCCN1c1nc(CN2CCCCC2)cs1 | inconclusive: 8.2 µM [inhibitor, partial curve] | 

Row | Structure (SMILES) | Potency | activity change, negative = growth inhibition
25 | O=C(O)c1ccc(CSC2CCCCC2)cc1 |  | inactive: 0.133%
26 | Cc1[nH]n(C(N)=S)c(=O)c1N=Nc1ccc2ccccc2c1 | inconclusive: 23.1 µM [inhibitor, single point] | 
27 | CCCCn1c(=O)c2c(O)cc(=O)oc2c2ccccc21 |  | inactive: -1.96%
28 | Cc1onc(-c2ccccc2Cl)c1-c1nc(-c2ccccn2)no1 | inconclusive: 16.4 µM [inhibitor, single point] | 
29 | O=C(OCC(=O)N1CCCCC1)c1ccc2c(c1)C(=O)N(Cc1ccco1)C2=O |  | inactive: -15.1%
30 | O=C1C2C3c4ccccc4C(c4ccccc43)C2C(=O)N1CN1CCOCC1 (configuration not stated) | inconclusive: 14.6 µM [inhibitor, partial curve] | 
31 | Cc1ccc(Cn2cc(S(=O)(=O)c3ccccc3)c(=O)c3cc(F)c(N4CCOCC4)cc32)cc1 | inconclusive: 29.1 µM [inhibitor, single point] | 
32 | CC(C)(C)c1nnc(NS(=O)(=O)c2ccc(F)cc2)s1 |  | inactive: -29.3%
33 | CC1C(=O)N(Cc2cn(Cc3ccco3)nn2)CCS(=O)(=O)N1Cc1ccc(-c2ccc(F)cc2Cl)cc1 (configuration not stated) | inconclusive: 23.1 µM [inhibitor, single point] | 
34 | COc1ccccc1N1CCN(S(=O)(=O)CCNC(=O)c2cc(=O)c3ccccc3o2)CC1 | inconclusive: 23.1 µM [inhibitor, single point] and inconclusive: 29.1 µM [inhibitor, single point] | 
35 | O=[N+]([O-])c1ccccc1N/N=C\c1ccccc1Cl |  | inactive: -16.7%
36 | Cc1ccc(F)c(S(=O)(=O)NC(=O)C2(C)CCN2C(=O)Cc2ccc(-c3ccccc3)cc2)c1 (configuration not stated) |  | inactive: -13.4%
37 | Cc1ccnc(Nc2nc(-c3sc(C)nc3C)cs2)c1 | active: 14.6 µM | 
38 | CC(C)(Oc1ccc(Cl)cc1)C(=O)Nc1ccc(-c2nc3ncccc3o2)cc1 | active: 16.4 µM | 
39 | NC(=O)Nc1ccc(C(=O)OCC(=O)N2CCc3ccccc3C2)cc1 |  | inactive: -18.9%
40 | O=C(C1=COCCO1)N1CCN(c2nc3ccc([N+](=O)[O-])cc3s2)CC1 | active: 9.2 µM | 
41 | C/C=C/c1ccc(OCCOCCOc2cccc3cccnc23)c(OC)c1 | active: 23.1 µM | 
42 | Cc1cc(C)c(C)c(S(=O)(=O)N[C@@H](C)C(=O)OC(C)C(=O)NC(N)=O)c1C (some centres not stated) |  | inactive: 1.29%
43 | CC(C)C(C)(C)C(C)(C)C(C)(C)S |  | inactive: 10.8% [at 92.5 µM]
44 | COc1ccc(C(CNC(=O)COc2cc(C)c(Cl)c(C)c2)N2CCCCC2)cc1 (configuration not stated) | active: 23.1 µM | 
45 | CCOc1cccc(C(=O)N/N=C/c2ccoc2)c1 |  | inactive: -7.86%
46 | COc1ccc(NC(=O)C2(C)Cc3c(-c4cccc(C(N)=O)c4)ccnc3O2)cc1OC (configuration not stated) | inconclusive: 14.6 µM [inhibitor, partial curve, poor fit] | 
47 | c1ccc(CNc2nc(-c3ccoc3)nc3ccccc23)cc1 | inconclusive: 18.4 µM [inhibitor, single point] | 
